For 90 molecules, survival results are on record in PubChem BioAssay AID463173 (ICCB-Longwood Screening Facility, Harvard Medical School, 2010).

Each structure is given as a SMILES string. About 1,700 (3.3%) of roughly 52,000 compounds were called active. Rule as the data show it: active = survival mostly below about 52% (no sharp cut-off); inactive = mostly above about 56%. This is one part of the list.

In this assay the test system is Wild type. The experiment in a line: growth inhibition of S. aureus wild type versus tarO mutant, primary screen, teichoic acid synthesis inhibitors, RN4220, OD600 (AID 463173). The following applies: S. aureus RN4220 wild type/DeltatarO growth, OD600, 18 h, active compounds read low, screened at 18.75 µg/mL (by protocol).
For `COc1ccccc1CNC(=O)c1cccc(N2CCCS2(=O)=O)c1`, the survival is inactive: 70%.

In the case of `CCCCN(C)CCNC(=O)c1ccc(Cn2c(=O)[nH]c3cc(OC)c(OC)cc3c2=O)cc1`, the survival is inactive: 70%.

On to `Cc1cccc(NC(=O)Nc2ccc(F)cc2)n1`, for which the survival was inactive: 123%.

Turning to `COc1ccc(-c2noc(N(c3ccc(F)c(Cl)c3)c3nc(-c4ccc(OC)c(OC)c4)no3)n2)cc1OC`, the survival was inactive: 95%.

Take `COc1cc(-c2nc(S(=O)(=O)c3ccc(Br)cc3)c(N3CCOCC3)o2)cc(OC)c1OC`: the survival was inactive: 56%.

Take `COc1ccc(Br)cc1C(=O)Nc1cccc2ccc(C)nc12`: the survival is inactive: 63%.

Turning to `CCc1ccc(CNC(=O)c2ccc3c(Cl)c4c(nc3c2)CCCC4)cc1`, the survival was inactive: 75%.

On to `CCc1nc2nc(C)cc(Nc3cc(Cl)ccc3C)n2n1`, for which the survival was inactive: 73%.

On to `Cc1cc(N2CCN(c3cccc(C)c3C)CC2)n2cnnc2n1`, for which the survival is inactive: 115%.

Regarding `CCOC(=O)c1cnn(-c2ccc(C(=O)Nc3ccc(OC(F)(F)F)cc3)cc2)c1N`, the survival was inactive: 130%.

Turning to `CC(=O)Nc1ccc(NC(=O)C2CCCN(S(=O)(=O)c3ccc4c(c3)CCCC(=O)N4)C2)cc1` (stereo not given), the survival was inactive: 72%.

In the case of `O=C(CCCCCN1C(=O)c2ccccc2C1=O)Nc1nccs1`, the survival is inactive: 112%.

`COCCn1nnnc1C(c1ccc2ncccc2c1)N1CCc2ccccc21` (stereo not given): the survival was inactive: 110%.

In the case of `COc1ccc(Cl)cc1NC(=O)Cn1ncc2c3ccccc3n(C)c2c1=O`, the survival was inactive: 119%.

As for `CCCN(Cc1cccs1)C(=O)Nc1cc(Cl)ccc1C`, the survival was inactive: 81%.

Take `Cc1nn(CC(=O)NCc2ccc(F)cc2)c2ccccc12`: the survival was inactive: 84%.

`Cc1ccc2[nH]c3c(=O)n(CC(=O)NCc4ccco4)ncc3c2c1`: the survival was inactive: 63%.

Take `Cc1ccc(C)c(N2CCN(C(=O)CCC(=O)Nc3ccc4nc(N5CCCCC5)cc(C)c4c3)CC2)c1`: the survival is inactive: 63%.

In the case of `Cc1ccc(OCCSc2nnc(-c3cccs3)o2)cc1Cl`, the survival is inactive: 72%.

As to `O=C(NCc1ccc(Cl)cc1)c1ccc2c(Cl)c3c(nc2c1)CCCC3`, the survival was inactive: 80%.

For `CCOC(=O)c1cccc(NC(=O)CCCn2nc(C)c3c(C)n(-c4ccccc4)nc3c2=O)c1`, the survival was inactive: 49%.

Regarding `CC(=O)Nc1ccc(NC(=O)C2CCN(c3c(NC(C)=O)c(C)nn3-c3ccccc3)CC2)cc1`, the survival was inactive: 63%.

Consider `CCOC(=O)c1ccc2nc(C)cc(Nc3cccc(C(=O)O)c3)c2c1`, for which the survival was inactive: 136%.

Regarding `CCOC(=O)c1c(C)n(-c2ccccc2)c2ccc(OC(=O)c3ccccc3NC(=O)C(C)C)cc12`, the survival is inactive: 58%.

Consider `COc1ccc(Cl)cc1-n1nnc(-c2nc(-c3ccccc3)no2)c1C`, for which the survival was inactive: 69%.

As to `COc1ccc(-c2nc3cc(C(C)C)ccc3o2)cc1NC(=O)c1ccccc1[N+](=O)[O-]`, the survival is inactive: 76%.

Take `COc1ccc(NC(=O)C2COc3ccccc3C2)cc1Cl` (stereo not given): the survival is inactive: 80%.

Regarding `CCOc1ccccc1CNC(=O)CCn1c(=O)c2cccn2c2ccc(F)cc21`, the survival was inactive: 75%.

Turning to `COc1ccc2c(c1)c(=O)c(C(=O)c1ccc(C)c(C)c1)cn2CC(=O)Nc1ccc2c(c1)OCCO2`, the survival is inactive: 82%.

On to `Cc1ccc(CNc2nc(-c3ccco3)nn2S(C)(=O)=O)cc1`, for which the survival was inactive: 109%.

Turning to `Cc1ccc(Cn2c(CN3CCC(C(=O)NCc4ccccc4C)CC3)cc3ccccc32)cc1`, the survival was inactive: 71%.

Consider `CC(C)Cc1ccc(S(=O)(=O)N2CCC(c3ccncc3)CC2)cc1`, for which the survival is inactive: 134%.

On to `COc1ccccc1N1CCN(C(=O)Cn2c(=O)n3nc(-c4ccc(C)cc4)nc3c3ccccc32)CC1`, for which the survival was inactive: 88%.

As for `COc1ccc(NC(=O)c2cccc(N3CCCS3(=O)=O)c2)cc1OC`, the survival was inactive: 73%.

On to `COC(=O)c1ccc(NC(=O)CCS(=O)(=O)c2ccc(Br)s2)cc1`, for which the survival is inactive: 87%.

As to `Cc1nc(N2CCCC2)ncc1C(=O)NCc1cccc(Cl)c1`, the survival is inactive: 72%.

Turning to `O=C(Nc1ccccc1)/C(=C/c1ccccc1)NC(=O)c1ccco1`, the survival is inactive: 110%.

With `CCc1ccc(NC(=O)CSc2nc3ccccc3nc2Cc2ccc(C)cc2)cc1`, the survival is inactive: 75%.

With `CCN1CCN(c2ccc(NC(=O)COc3ccccc3)cc2)CC1`, the survival is inactive: 113%.

For `COc1ccc(C)cc1NC(=O)CN1c2ccccc2S(=O)(=O)c2ccccc21`, the survival was inactive: 88%.

For the molecule `COc1ccc(C(=O)CSc2nc(C)cc(C)c2C(=O)Nc2ccccc2C)cc1`, the survival is inactive: 83%.

`Cc1nnc(N2C(=O)c3oc4ccccc4c(=O)c3C2c2ccc(C(C)(C)C)cc2)s1` (stereo not given): the survival was inactive: 129%.

Turning to `COC(=O)c1ccc(NC(=O)CC2C(=O)N(c3cccc(OC)c3)C(=O)N2Cc2ccco2)cc1` (stereo not given), the survival is inactive: 79%.

`COCCNC(=O)c1ccc2c(=O)n(CCc3ccccc3)c(SCC(=O)CC(=O)OC)nc2c1`: the survival was inactive: 78%.

On to `COc1cccc(-c2nc(S(=O)(=O)c3ccccc3)c(N3CCCCC3)o2)c1`, for which the survival was inactive: 81%.

Regarding `CCC(C)NC(=O)CSc1nc2cc3c(cc2c(=O)n1CCCC(=O)NCCc1ccc(OC)c(OC)c1)OCO3` (stereo not given), the survival is inactive: 82%.

`CCC(C(=O)NCc1ccccc1)N(C(=O)Cn1nnc(-c2cccs2)n1)c1ccccc1OC` (stereo not given): the survival was inactive: 108%.

With `Cc1cccc(OCCSc2nc3ccccc3n2CC(=O)N2CCOCC2)c1`, the survival was inactive: 82%.

On to `c1ccc2c(NC3CCCC3)nc(N3CCNCC3)nc2c1`, for which the survival is inactive: 111%.

For the molecule `COc1ccccc1CNC(=O)c1ccc(CS(=O)(=O)c2c(Cl)cccc2Cl)o1`, the survival was inactive: 70%.

Turning to `CCCn1c(=O)c2sccc2n2c(CCCC(=O)N3CCN(c4ccccc4OC)CC3)nnc12`, the survival is inactive: 107%.

As to `CCOC(=O)c1c(C)[nH]c(C)c1S(=O)(=O)N(C)CC(=O)Nc1cc(Cl)ccc1C`, the survival is inactive: 71%.

For `Cc1ccccc1OCCCCn1c(-c2ccc(Cl)cc2)nc2ccccc2c1=O`, the survival was inactive: 70%.

In the case of `CCOC(=O)c1ccc(N2C(=O)c3[nH]nc(-c4ccc(C)cc4)c3C2c2ccc(O)c(OCC)c2)cc1` (stereo not given), the survival is inactive: 91%.

Take `C=CCNC(=O)c1ccc2nc(-c3ccco3)c(-c3ccco3)nc2c1`: the survival was inactive: 120%.

Take `CCc1ccc(CNC(=O)c2c3c(nc4ccccc24)C(=O)N(C2CCCCC2)C3)cc1`: the survival is inactive: 32%.

Regarding `COc1cc2c(=O)c(C(=O)c3ccc(C)c(C)c3)cn(Cc3ccccc3F)c2cc1OC`, the survival was inactive: 127%.

On to `CCn1c(SCC#N)nnc1-c1ccc(S(=O)(=O)N2CCCC2)cc1`, for which the survival is inactive: 100%.

Regarding `COC(=O)c1cc(-c2ccccc2)oc1CN`, the survival was inactive: 123%.

Turning to `Cc1ccc2c(=O)cc(C(=O)Nc3sc4c(c3C(=O)NCc3ccco3)CCC4)oc2c1`, the survival was inactive: 88%.

Turning to `CC1=C(C(=O)OCc2ccc(C)cc2)C(c2ccccc2F)CC(=O)N1` (stereo not given), the survival is inactive: 115%.

As to `COc1cc(NC(=O)CCc2c(C)nn(-c3ccc(N4CCOCC4)nn3)c2C)cc(OC)c1OC`, the survival was inactive: 119%.

Take `O=C(NCc1ccccc1F)C1CCN(c2nnc(-n3cccc3)s2)CC1`: the survival is inactive: 84%.

For the molecule `COc1ccccc1NC(=O)CSc1nnc(-c2ccccc2C)o1`, the survival was inactive: 80%.

With `COc1ccc2c(c1)c(=O)c(C(=O)c1ccccc1)cn2CC(=O)Nc1ccc2c(c1)OCCO2`, the survival was inactive: 91%.

Take `O=C1CC(Cc2ccccc2)C(=O)N1Cc1ccco1` (stereo not given): the survival is inactive: 103%.

Consider `COc1cccc(CNC(=O)C2CCN(c3nc4ccc(Cl)cc4[nH]3)CC2)c1`, for which the survival was inactive: 78%.

Consider `CCCCc1cc(=O)oc2cc(C)c3c(C)coc3c12`, for which the survival is inactive: 96%.

As to `CSc1ncc(Cl)c(C(=O)Nc2ccc(S(=O)(=O)N3CCC(C)CC3)cc2)n1`, the survival was inactive: 87%.

In the case of `Cn1cnc(S(=O)(=O)N2CCCC(C(=O)Nc3ccc(F)cc3Cl)C2)c1` (stereo not given), the survival was inactive: 79%.

`Cc1ccc(Cn2c(C(=O)Nc3cccc(Cl)c3)cc3sccc32)cc1`: the survival is inactive: 83%.

As to `Cn1nnnc1SCCNCc1ccccc1OCc1ccccc1F`, the survival is inactive: 121%.

Turning to `Cc1ccc(C2c3c(-c4ccccc4O)n[nH]c3C(=O)N2CCCO)cc1` (stereo not given), the survival was inactive: 69%.

As to `CCOC(=O)c1cccc(NC(=O)c2ccc3c(c2)nnn3C2CCCC2)c1`, the survival is inactive: 80%.

Turning to `O=C(NCCn1cc(SCc2ccc(F)cc2)c2ccccc21)c1c(F)cccc1F`, the survival is inactive: 68%.

For `COC(=O)C1C(c2ccccc2)C(C(=O)OCc2ccco2)C1c1ccccc1` (stereo not given), the survival is inactive: 118%.

As to `CSc1nc(C)cc(Nc2c(C)cc(C)cc2C)n1`, the survival was inactive: 84%.

For the molecule `COc1cccc(C(=O)Nc2ccc(Cl)c(-c3nc4ccccc4[nH]3)c2)c1`, the survival is inactive: 66%.

For the molecule `COc1ccc2c(c1)CC(NC(=O)Nc1cc(Cl)ccc1OC)CO2` (stereo not given), the survival was inactive: 83%.

For `CC(=O)c1ccc(N2CCN(S(=O)(=O)c3ccc4c(c3)CC(C)N4C(=O)C3CCC3)CC2)cc1` (stereo not given), the survival was inactive: 74%.

For `COC(=O)c1ccc(NS(=O)(=O)c2ccc(-n3cccn3)cc2)cc1`, the survival is inactive: 72%.

For `O=C(O)CSc1nnc(-c2ccccc2)o1`, the survival is inactive: 109%.

Consider `CCc1ccc(OCCCSc2nc(-c3ccc(C(C)(C)C)cc3)nc3cc(=O)[nH]n23)cc1`, for which the survival is inactive: 73%.

Consider `Cc1ccc(S(=O)(=O)c2cn(C)c3cc(N4CCCCCC4)c(F)cc3c2=O)cc1`, for which the survival was inactive: 80%.

For the molecule `Cc1ccccc1NC(=O)c1ccc2nc(Cc3ccccc3)oc2c1`, the survival is inactive: 81%.

Consider `COc1ccccc1C(=O)Nc1c(C(=O)N(CCN(C)C)Cc2ccco2)oc2ccccc12`, for which the survival was inactive: 65%.

Consider `Cc1ccc(Cn2c(=O)n(-c3ccccc3)c(=O)c3ccc(C(=O)NCc4ccco4)cc32)cc1`, for which the survival is inactive: 88%.

Consider `C=Cc1ccc(Cn2c(C(=O)O)c(CNCc3cccs3)c3ccc(C)cc32)cc1`, for which the survival is inactive: 71%.

Take `S=c1[nH]c2ccccc2n1CCOc1ccccc1`: the survival is inactive: 113%.

Take `Cn1c(SCc2ccc(F)cc2)nc2c([nH]c3ccccc32)c1=O`: the survival is inactive: 79%.
